The other results are listed elsewhere or left out.
Tested on: S. aureus RN4220
Experiment: growth inhibition call (relative growth <= 0.2)
Conditions: 50 µM

Growth inhibition call, inactive:
COCCNC(=O)C[C@H]1CC[C@@H]2[C@H](COC[C@H](O)CN2C(=O)Nc2ccccc2OC)O1, CO[C@@H]1CN(C)C(=O)c2cc(NC(=O)C3CCOCC3)ccc2OC[C@@H](C)N(Cc2cccnc2)C[C@@H]1C, C[C@@H]1CN([C@@H](C)CO)S(=O)(=O)c2ccc(-c3ccc(F)cc3)cc2O[C@H]1CN(C)S(C)(=O)=O, O=S1(=O)CCCCN1, COc1ccc(S(=O)(=O)N(C)C[C@@H]2OCCCC[C@@H](C)Oc3ccc(NS(C)(=O)=O)cc3C(=O)N([C@H](C)CO)C[C@H]2C)cc1, COc1ccc(CN(C)C[C@H]2OCCCC[C@@H](C)Oc3ccc(NC(=O)Nc4cccc5ccccc45)cc3C(=O)N([C@@H](C)CO)C[C@@H]2C)cc1, C[C@H]1CN([C@@H](C)CO)C(=O)c2cc(NS(C)(=O)=O)ccc2O[C@H]1CN(C)Cc1ccc(C(=O)O)cc1

— the antibiotic and cytotoxicity screens of Wong et al. (2023)
